This assay has as its target T1, EPO/EPOR interaction (EPOR-CD131-Fc and EPO) (Homo sapiens, UniProt P19235+P32927).
T1 construct: Chimeric Fc fusion proteins of the extracellular domains of human EPOR and human CD131; purchased Sino Biological CT010-H02H
T1 sequence (P19235 25-250 limits assumed): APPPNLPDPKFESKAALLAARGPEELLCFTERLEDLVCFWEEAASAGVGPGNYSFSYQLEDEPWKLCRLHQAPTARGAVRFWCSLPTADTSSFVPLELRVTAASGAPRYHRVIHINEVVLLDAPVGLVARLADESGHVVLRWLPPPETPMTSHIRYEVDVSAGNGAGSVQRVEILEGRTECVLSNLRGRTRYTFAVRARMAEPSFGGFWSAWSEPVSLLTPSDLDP
T1 sequence (P32927 17-443 limits assumed): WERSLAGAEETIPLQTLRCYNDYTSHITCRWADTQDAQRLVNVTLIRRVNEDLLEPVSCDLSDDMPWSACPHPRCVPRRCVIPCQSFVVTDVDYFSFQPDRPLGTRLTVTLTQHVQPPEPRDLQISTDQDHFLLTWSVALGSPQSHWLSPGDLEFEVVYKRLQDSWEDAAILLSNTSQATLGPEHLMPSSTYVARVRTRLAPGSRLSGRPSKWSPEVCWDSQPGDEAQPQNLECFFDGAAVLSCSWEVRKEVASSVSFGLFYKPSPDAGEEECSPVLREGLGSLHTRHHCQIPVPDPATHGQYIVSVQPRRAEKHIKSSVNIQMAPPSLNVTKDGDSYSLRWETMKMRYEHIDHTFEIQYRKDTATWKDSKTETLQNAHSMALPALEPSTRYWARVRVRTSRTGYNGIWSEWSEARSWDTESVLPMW
Briefly: Octet blocking of the EPO/EPOR interaction by hybridoma supernatants. In kind it is binding. Particulars: EPO 10 nM. On the technique in general: Biolayer interferometry detects binding as a change in optical thickness at a sensor tip.

B1: EPORab - M38: hybridoma antibody clone, VH/VK in Table 10 (antibody, V domains shown)
VH: QVQLVESGGGVVQPGRSLRLSCAASGFTFSSYGMHWVRQAPGKGLEWVAFIWYDGRNKNYVDSVKGRFTISRDNSKNTLYLQMNSLRAEDTAVYYCARDRGDYVFDYWGQGTLVTVSS
VL: DIQMTQSPSSLSASVGDRVTITCQASQDIRNYLNWYQQKPGKAPKLLIYDASNLETGVPSRFSGSGSGTDFTFTISSLKPEDIATYYCQQYDNLLFTFGPGTKVDIK
Turning to B1, the “blocking of the EPO/EPOR interaction” value was “did not block”.

These data come from patent US12637513B2, “Method of treating cancer by administering an inhibitor of erythropoietin receptor activity comprising either erythropoietin receptor or erythropoietin protein” (ImmunEdge, Inc., priority 2022, dated 2026).
